# PubChem BioAssay AID485281 (National Center for Advancing Translational Sciences (NCATS), 2010)
# Values joined by “and” are separate entries in the source; they are usually repeats but may differ in a detail not shown here. Equal values may be shown once. In all, about 350,000 compounds went through this assay and about 260 (0.074%) were called active. Inconclusive results, whose numbers are uncertain, are shown with a selection of clear calls. Calls follow the shape of the dose curve; as a rule, active = well fitted inhibition curve with a large enough effect; inconclusive = small, poorly fitted or top-dose-only effect; inactive = no such curve, though single readings can be large or run the other way. Potencies beside an inconclusive call are fits to weak or partial responses and may not hold up.
# Molecular target: Ferritin light chain (Equus caballus) (UniProt P02791)
# Assay: qHTS Assay for Identification of Novel General Anesthetics; also: nearly all actives have a fitted effect of over 20% in size
# Settings: apoferritin/1-aminoanthracene competitive binding, fluorescence; activity change, negative = displacement: at 77.5 µM (top of the series)
# In short: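 Probe: 1-aminoanthracene (50% saturated, PBS). Protein: horse-spleen apoferritin, 10 uM. Incubation: 10 min, room temperature. Detection: 380 nm excitation, 535 nm emission. Analysis: normalized response, four-parameter Hill.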
# % is scaled to controls: 0 for no effect and ±100 for the full control effect; potency is read from the fitted curve at half-maximal effect; tags tell the direction and shape of the fitted curve.
# UniProt P02791, sequence (P02791 whole entry, looked up): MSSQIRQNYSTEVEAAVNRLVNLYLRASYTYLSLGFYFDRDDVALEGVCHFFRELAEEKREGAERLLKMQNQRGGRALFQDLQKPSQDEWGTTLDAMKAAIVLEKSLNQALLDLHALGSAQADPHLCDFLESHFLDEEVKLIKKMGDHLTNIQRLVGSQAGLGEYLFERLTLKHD
Structure (SMILES),Potency,"activity change, negative = displacement"
CC(=O)c1cccc(NC(=S)N2CCC(Cc3ccccc3)CC2)c1,"inconclusive: 15.8 µM [inhibitor, partial curve]",–
Cc1cccc(NC(=O)C23CCC(C)(C2Br)C3(C)C)c1 (configuration not stated),"inconclusive: 14.1 µM [inhibitor, partial curve]",–
Cc1c(Cc2ccccc2)sc(/N=C/c2c(O)ccc3ccccc23)c1C(N)=O,"inconclusive: 35.5 µM [inhibitor, single point]",–
COc1ccccc1N(CC(O)COc1c(C)cc(C)cc1C)S(=O)(=O)c1ccccc1 (configuration not stated),–,inactive: 41.1%
Cc1ccc(Sc2ncccc2C(=O)NCc2cc([N+](=O)[O-])ccc2O)cc1C,"inconclusive: 39.8 µM [inhibitor, single point]",–
Cc1nc(SCC(=O)Nc2ccc(OCc3ccccc3)cc2)n[nH]1,"inconclusive: 7.94 µM [inhibitor, partial curve]",–
CCOC(=O)CCC(NC(=O)c1cncc(O)c1)C(=O)OCC (configuration not stated),–,inactive: -11.7%
COc1cc(NS(=O)(=O)c2ccc(N/C=C(\C#N)c3nc4cc(Cl)ccc4o3)cc2)nc(OC)n1,"inconclusive: 35.5 µM [inhibitor, partial curve]",–
O=C(Nc1nc2ccccc2[nH]1)c1ccccc1OC(F)F,–,inactive: 6.8%
NC(=O)c1ccsc1NC(=O)C1CCCCC1,"inconclusive: 25.1 µM [inhibitor, partial curve]",–
COc1ccccc1C(=O)NC(=O)COC(=O)CCOc1cc(C)ccc1C,"inconclusive: 14.1 µM [inhibitor, partial curve]",–
O=c1c2c(-c3ccco3)csc2nc(SCc2cn3cccnc3n2)n1-c1ccccc1,"inconclusive: 14.1 µM [inhibitor, partial curve]",–
COC(=O)c1cc(S(=O)(=O)N2CCN(c3cc(Cl)ccc3C)CC2)c[nH]1,"inconclusive: 7.94 µM [inhibitor, partial curve]",–
COc1cc2c(=O)c(C(=O)c3ccc(F)cc3)cn(Cc3cccc(F)c3)c2cc1OC,"inconclusive: 25.1 µM [inhibitor, partial curve]",–
CC(=O)Nc1ccc(SCC(=O)N(CCC#N)c2cc(C)cc(C)c2)cc1,–,inactive: -18.7%
Cc1nc(S/C(=C/c2ccc(-c3ccc(C(=O)O)cc3)o2)C(=O)O)n[nH]1,–,inactive: 24.9%
CSc1nsc(SCc2ccc(Cl)cc2)n1,"inconclusive: 39.8 µM [inhibitor, partial curve]",–
CC(C)c1nc2ccc(C(=O)NCCCN3CCN(c4ccccc4)CC3)cc2o1,"inconclusive: 6.31 µM [inhibitor, full curve]",–
CC(C)(C)CC(C)(C)NC(=O)c1ccc2snnc2c1,"inconclusive: 35.5 µM [inhibitor, single point]",–
COc1ccc(CCNS(=O)(=O)c2ccc(OC)cc2)cc1,"inconclusive: 28.2 µM [inhibitor, partial curve]",–
Cc1ccc(S(=O)(=O)NCc2c(-c3ccccc3)noc2C)cc1,–,inactive: -3.35%
CCCCn1c(CNC(=O)C23CC4CC(CC(C4)C2)C3)nnc1SC(C)CC (configuration not stated),"inconclusive: 39.8 µM [inhibitor, single point]",–
CC(C)Nc1ccc(Nc2ccnc3cc4ccccc4cc23)cc1,"inconclusive: 50.1 µM [inhibitor, single point]",–

Structure (SMILES),Potency,"activity change, negative = displacement"
CC(Oc1ccc(-c2ccccc2)cc1)C(=O)N/N=C/c1cccnc1 (configuration not stated),"inconclusive: 50.1 µM [inhibitor, single point]",–
CCN1CCC(O)(C#Cc2ccccc2)CC1,–,inactive: -0.39%
COc1ccc(NC(=O)NC2CCCCCCC2)c(OC)c1,"inconclusive: 17.8 µM [inhibitor, partial curve]",–
CCN(CC)C(=O)c1ccc(-c2cccs2)s1,"inconclusive: 50.1 µM [inhibitor, single point]",–
COc1ccccc1CNC(=O)C1CCN(C2=NS(=O)(=O)C(c3ccc(C)c(C)c3)=C2C)CC1,"inconclusive: 6.31 µM [inhibitor, full curve, poor fit]",–
Brc1cccc(OCCCN2CCCCCC2)c1,–,inactive: -9.19%
COc1ccc(-c2nc(CC(=O)O)cs2)cc1,–,inactive: -8.93%
O=C(COc1cccc(C(F)(F)F)c1)N1CCN(c2ccccc2O)CC1,"inconclusive: 28.2 µM [inhibitor, partial curve]",–
COc1ccc(CNC(=O)c2cc3c(s2)CN(Cc2ccccc2)C3)cc1,"inconclusive: 39.8 µM [inhibitor, single point]",–
Cc1cccc(CSc2ncnc3ccccc23)c1,"inconclusive: 39.8 µM [inhibitor, single point]",–
COc1ccc(OCc2cc(C(=O)NCC3CCOCC3)no2)c(Cl)c1,"inconclusive: 28.2 µM [inhibitor, single point]",–
CCOC(=O)N1CCC(Nc2ncnc3c2cnn3-c2ccccc2)CC1,–,inactive: -12.2%
CCOC(=O)N/N=C/c1ccc(Oc2ccccc2)cc1,"inconclusive: 44.7 µM [inhibitor, partial curve, poor fit]",–
CC(C)N1CCc2c(sc(NC(=O)c3ccc(S(=O)(=O)N(C)C4CCCCC4)cc3)c2C(N)=O)C1,"inconclusive: 25.1 µM [inhibitor, partial curve]",–
CN1CCN(Cc2ccc(OCc3ccccc3)cc2)CC1,"inconclusive: 17.8 µM [inhibitor, partial curve]",–
Cc1ccc(C(C)C)c(OCc2ccc(C(=O)N/N=C/c3ccc(O)c(O)c3)cc2)c1,"inconclusive: 22.4 µM [inhibitor, single point]",–
Cc1cc2cc(CNC(=O)c3ccc(S(=O)(=O)N4CCCCC4)cc3)ccc2n1C,"inconclusive: 3.16 µM [inhibitor, full curve]",–
O=C(CCC1CCCCC1)NNC(=O)NC12CC3CC(CC(C3)C1)C2,"inconclusive: 11.2 µM [inhibitor, full curve, poor fit]",–
Cc1cccc(-c2nc(CS(=O)CC(=O)NCc3ccc(Cl)cc3)c(C)o2)c1 (configuration not stated),"inconclusive: 11.2 µM [inhibitor, partial curve]",–
CCOC(=O)C1(Cc2ccccc2C(F)(F)F)CCN(C(=O)c2cc(C(C)=O)n[nH]2)CC1,"inconclusive: 44.7 µM [inhibitor, single point]",–
CCn1cc(C(=O)NCc2ccco2)c(=O)c2cc(S(=O)(=O)N3CCCCCC3)ccc21,"inconclusive: 15.8 µM [inhibitor, partial curve]",–
COc1cccc(-c2cn3c(n2)sc2cc(C(=O)NCc4ccccc4F)ccc23)c1,–,inactive: -9.13%
O=C1c2ccccc2C(=O)c2cc(S(=O)(=O)Nc3cccc4cccnc34)ccc21,"inconclusive: 31.6 µM [inhibitor, partial curve]",–

Structure (SMILES),Potency,"activity change, negative = displacement"
Cc1ccc(NCC(=O)N/N=C\c2ccc[nH]2)cc1,"inconclusive: 50.1 µM [inhibitor, single point]",–
O=C(Nc1nnc(-c2ccco2)o1)c1ccc(Cl)cc1,–,inactive: 2.03%
O=C(c1cc([N+](=O)[O-])cc([N+](=O)[O-])c1)N(Cc1nnc(-c2ccccc2Cl)o1)C1CC1,"inconclusive: 22.4 µM [inhibitor, partial curve]",–
O=C(Oc1ccc(N(Cc2cccs2)C2=NS(=O)(=O)c3ccccc32)cc1)c1ccc(Cl)cc1,–,inactive: 3.6%
COc1ccc(CCCC(=O)N/N=C/c2cccc(OC)c2O)cc1C,"inconclusive: 39.8 µM [inhibitor, single point]",–
NC(=O)COC(=O)CC12CC3CC(CC(C3)C1)C2,"inconclusive: 10 µM [inhibitor, partial curve]",–
COc1cc2nc(N3CCN(c4cc(C)ccc4C)CC3)nc(N)c2cc1OC,"inconclusive: 50.1 µM [inhibitor, single point]",–
O=S1(=O)C=C(SCCN2CCCC2)c2ccccc21,"inconclusive: 25.1 µM [inhibitor, partial curve]",–
O=C(N1CCCC1)C12CC3CCC(CC(C3)C1)C2,"inconclusive: 31.6 µM [inhibitor, partial curve]",–
O=C(COC(=O)CCOc1ccccc1)NCCC1=CCCCC1,"inconclusive: 31.6 µM [inhibitor, single point]",–
Fc1ccc(SCCc2ccncc2)cc1,"inconclusive: 31.6 µM [inhibitor, partial curve] and inconclusive: 39.8 µM [inhibitor, partial curve]",–
CC1CCCCC1NC(=O)COC(=O)C12CC3CC(CC(Cl)(C3)C1)C2 (configuration not stated),"inconclusive: 12.6 µM [inhibitor, partial curve]",–
O=c1c(Cl)nc2cc(Cl)ccc2n1CCNc1ncc(C(F)(F)F)cc1Cl,"inconclusive: 28.2 µM [inhibitor, partial curve]",–
CC(=O)Nc1ccc(NC(=O)CSc2cn(CC(=O)N(C(C)C)C(C)C)c3ccccc23)cc1,–,inactive: -20.4%
Cc1ccc(C)c(CN2C(=O)COc3ccc(C(=O)c4ccccc4C(=O)O)cc32)c1,"inconclusive: 31.6 µM [inhibitor, partial curve]",–
OCC1OC([S-])[C@H](O)C(O)C1O.[Au+] (some centres not stated),–,inactive: -3%
COc1cccc(NC(=O)N(Cc2ccco2)C(C)c2cccs2)c1 (configuration not stated),"inconclusive: 35.5 µM [inhibitor, partial curve]",–
O=C(Nc1ccc(O)cc1C(=O)O)c1ccc2c(c1)C(=O)N(Cc1ccco1)C2=O,–,inactive: -8.96%
COc1ccc(OCCn2cc(C(=O)c3ccco3)c3ccccc32)cc1,"inconclusive: 28.2 µM [inhibitor, partial curve]",–
CCN1CCN(C(=O)c2ccc3c(c2)N(Cc2c(F)cccc2Cl)C(=O)c2ccccc2S3)CC1,–,inactive: 1.1%
CC(C)c1ccc(NC(=O)CSC2=Nc3ccccc3C3=NC(CCC(=O)NCc4ccc(F)cc4)C(=O)N23)cc1 (configuration not stated),"inconclusive: 22.4 µM [inhibitor, partial curve]",–
